Data published in a collection of fitness landscapes (doi:10.1126/science.1257360).
This is one part of the list.

B1: PhoQ; a variant is named by its letters at X, in order, P23837 (parent)
chain: MKKLLRLFFPLSLRVRFLLATAAVVLVLSLAYGMVALIGYSVSFDKTTFRLLRGESNLFYTLAKWENNKLHVELPENIDKQSPTMTLIYDENGQLLWAQRDVPWLMKMIQPDWLKSNGFHEIEADVNDTSLLLSGDHSIQQQLQEVREDDDDAEMTHSVAVNVYPATSRMPKLTIVVVDTIPVELKSSYMVWSWFIYVLSANLLLVIPLLWVAAWWSLRPIEALAKEVRELEEHNRELLNPATTRELTSLVRNLNRLLKSERERYDKYRTTLTDLTHSLKTPLXXLQXXLRSLRSEKMSVSDAEPVMLEQISRISQQIGYYLHRASMRGGTLLSRELHPVAPLLDNLTSALNKVYQRKGVNISLDISPEISFVGEQNDFVEVMGNVLDNACKYCLEFVEISARQTDEHLYIVVEDDGPGIPLSKREVIFDRGQRVDTLRPGQGVGLAVAREITEQYEGKIVAGESMLGGARMEVIFGRQHSAPKDE

Variants of: B1
Assay: enrichment ratio after two sorts for PhoP signalling (ratio (wild type AVST 3.29)); higher = more functional
Conditions: with PhoP (E. coli)

Variant	enrichment ratio
AEHS	≤ 0.25
IWFA	≤ 0.25
KNMS	≤ 0.25
LFGW	≤ 0.25
IWMT	≤ 0.25
YWQL	≤ 0.25
MTRC	≤ 0.25
SLLH	0.966
QFPI	≤ 0.25
SEQD	≤ 0.25
KAFP	≤ 0.25
YREI	≤ 0.25
YSAS	≤ 0.25
DSCI	≤ 0.25
RSLV	≤ 0.25
KLVR	≤ 0.25
DLQM	≤ 0.25
YIQR	≤ 0.25
PCNR	≤ 0.25
RSCH	≤ 0.25
IHRL	≤ 0.25
TDIR	≤ 0.25
MPDK	≤ 0.25
HKLY	≤ 0.25
KLPD	≤ 0.25

Variant	enrichment ratio
GTSI	2.4
MVPF	≤ 0.25
GLEE	≤ 0.25
FDSA	≤ 0.25
DGAV	≤ 0.25
LMCE	≤ 0.25
IYIC	≤ 0.25
ERER	≤ 0.25
YDWS	≤ 0.25
LHRT	≤ 0.25
ENMN	≤ 0.25
SIAG	11
GHQL	0.412
ATNM	≤ 0.25
MAMY	1.42
VTGE	≤ 0.25
PCTN	≤ 0.25
RMLE	≤ 0.25
LSTR	≤ 0.25
SAVD	≤ 0.25
FVKG	≤ 0.25
TCEN	0.333
TRTF	≤ 0.25
NMAA	≤ 0.25
TKGF	≤ 0.25

Variant	enrichment ratio
RGTP	≤ 0.25
FIVL	2.42
YKCE	≤ 0.25
LHVF	≤ 0.25
PEWL	≤ 0.25
PEPG	≤ 0.25
SLGT	≤ 0.25
DCSR	≤ 0.25
IHPT	≤ 0.25
HKIS	≤ 0.25
DYKW	≤ 0.25
ALRH	≤ 0.25
IKMI	≤ 0.25
YDDM	≤ 0.25
WSAC	≤ 0.25
EHHL	≤ 0.25
EVGG	≤ 0.25
GHSF	≤ 0.25
WSMQ	≤ 0.25
WTAF	≤ 0.25
MQRC	≤ 0.25
GENI	≤ 0.25
WICL	≤ 0.25
MHQP	≤ 0.25
HGAV	≤ 0.25

Variant	enrichment ratio
NALG	0.397
HYCV	≤ 0.25
VCWG	≤ 0.25
EKTM	≤ 0.25
WHWR	≤ 0.25
YDEF	≤ 0.25
LQPR	≤ 0.25
NLVC	≤ 0.25
TTVF	≤ 0.25
PYPK	≤ 0.25
SYST	0.257
VSEW	≤ 0.25
REWA	≤ 0.25
KVIH	≤ 0.25
QYKK	≤ 0.25
EWLY	≤ 0.25
LWHF	≤ 0.25
WYVS	≤ 0.25
HAKF	≤ 0.25
LLAW	≤ 0.25
KAAD	≤ 0.25
SVTD	≤ 0.25
QRFK	≤ 0.25
PWLG	≤ 0.25
SGQA	≤ 0.25

Variant	enrichment ratio
ICPT	≤ 0.25
EQTG	≤ 0.25
LMQR	≤ 0.25
YNKS	≤ 0.25
IITY	≤ 0.25
NYNI	≤ 0.25
PTGG	≤ 0.25
ILVD	≤ 0.25
DYYE	≤ 0.25
FCKY	≤ 0.25
GNHF	≤ 0.25
CIYA	≤ 0.25
TDKD	≤ 0.25
KSAF	≤ 0.25
EDDH	≤ 0.25
DVMW	≤ 0.25
IWKN	≤ 0.25
FWHL	≤ 0.25
KLWM	≤ 0.25
SHRL	≤ 0.25
IDTI	≤ 0.25
EDRD	≤ 0.25
MKMH	≤ 0.25
FIIV	≤ 0.25
GCWP	≤ 0.25

Variant	enrichment ratio
AYDD	≤ 0.25
NYWN	≤ 0.25
HPGN	≤ 0.25
FNQG	≤ 0.25
WYCY	≤ 0.25
HKCM	≤ 0.25
VKVW	≤ 0.25
SSPI	7.09
YRFY	≤ 0.25
ANCY	10.9
SYLT	≤ 0.25
RLVA	≤ 0.25
ITKH	≤ 0.25
VIIE	≤ 0.25
HLKM	≤ 0.25
QRPT	≤ 0.25
KVVK	≤ 0.25
RHPI	≤ 0.25
RGFW	≤ 0.25
IHLW	≤ 0.25
IPFH	≤ 0.25
NSEL	≤ 0.25
NGII	≤ 0.25
DING	≤ 0.25
PGLA	≤ 0.25

Variant	enrichment ratio
AIGE	10.6
QIFL	≤ 0.25
RMSG	≤ 0.25
RNNF	0.545
GDGF	≤ 0.25
FIFC	≤ 0.25
SKPY	≤ 0.25
HHAN	≤ 0.25
FGKG	≤ 0.25
PGPM	≤ 0.25
GNIC	2.72
LIQT	≤ 0.25
WKPC	≤ 0.25
FLNN	≤ 0.25
SCID	≤ 0.25
PSSS	≤ 0.25
RTHW	≤ 0.25
PYLC	≤ 0.25
LAHQ	≤ 0.25
AVVL	0.918
GCFE	≤ 0.25
QNPQ	≤ 0.25
LTQL	≤ 0.25
YKTD	≤ 0.25
MCMR	≤ 0.25

Variant	enrichment ratio
SSHD	≤ 0.25
FLQC	≤ 0.25
ITTQ	≤ 0.25
ASGS	3.2
NTYG	≤ 0.25
SDFS	≤ 0.25
PLMF	≤ 0.25
TWFL	≤ 0.25
HFIP	≤ 0.25
YWNG	≤ 0.25
LFIA	≤ 0.25
EWRV	≤ 0.25
YVRS	≤ 0.25
FSCW	≤ 0.25
KMFH	≤ 0.25
PCGA	≤ 0.25
YYNQ	≤ 0.25
SISD	1.93
QTEL	≤ 0.25
NNHN	≤ 0.25
